The text below walks through data of article PMC4336329 (PLoS ONE, 2015).

About 2,200 (0.71%) of roughly 310,000 compounds showed an effect of 50% or more. Effects have a minus sign here. This is one part of the list.

The target of this assay is human ether-à-go-go-related gene (hERG) potassium channel (human, UniProt Q12809). As to the kind of experiment: primary screen, population patch clamp on CHO cells stably expressing hERG.
human ether-à-go-go-related gene (hERG) potassium channel, sequence (Q12809 whole entry, looked up): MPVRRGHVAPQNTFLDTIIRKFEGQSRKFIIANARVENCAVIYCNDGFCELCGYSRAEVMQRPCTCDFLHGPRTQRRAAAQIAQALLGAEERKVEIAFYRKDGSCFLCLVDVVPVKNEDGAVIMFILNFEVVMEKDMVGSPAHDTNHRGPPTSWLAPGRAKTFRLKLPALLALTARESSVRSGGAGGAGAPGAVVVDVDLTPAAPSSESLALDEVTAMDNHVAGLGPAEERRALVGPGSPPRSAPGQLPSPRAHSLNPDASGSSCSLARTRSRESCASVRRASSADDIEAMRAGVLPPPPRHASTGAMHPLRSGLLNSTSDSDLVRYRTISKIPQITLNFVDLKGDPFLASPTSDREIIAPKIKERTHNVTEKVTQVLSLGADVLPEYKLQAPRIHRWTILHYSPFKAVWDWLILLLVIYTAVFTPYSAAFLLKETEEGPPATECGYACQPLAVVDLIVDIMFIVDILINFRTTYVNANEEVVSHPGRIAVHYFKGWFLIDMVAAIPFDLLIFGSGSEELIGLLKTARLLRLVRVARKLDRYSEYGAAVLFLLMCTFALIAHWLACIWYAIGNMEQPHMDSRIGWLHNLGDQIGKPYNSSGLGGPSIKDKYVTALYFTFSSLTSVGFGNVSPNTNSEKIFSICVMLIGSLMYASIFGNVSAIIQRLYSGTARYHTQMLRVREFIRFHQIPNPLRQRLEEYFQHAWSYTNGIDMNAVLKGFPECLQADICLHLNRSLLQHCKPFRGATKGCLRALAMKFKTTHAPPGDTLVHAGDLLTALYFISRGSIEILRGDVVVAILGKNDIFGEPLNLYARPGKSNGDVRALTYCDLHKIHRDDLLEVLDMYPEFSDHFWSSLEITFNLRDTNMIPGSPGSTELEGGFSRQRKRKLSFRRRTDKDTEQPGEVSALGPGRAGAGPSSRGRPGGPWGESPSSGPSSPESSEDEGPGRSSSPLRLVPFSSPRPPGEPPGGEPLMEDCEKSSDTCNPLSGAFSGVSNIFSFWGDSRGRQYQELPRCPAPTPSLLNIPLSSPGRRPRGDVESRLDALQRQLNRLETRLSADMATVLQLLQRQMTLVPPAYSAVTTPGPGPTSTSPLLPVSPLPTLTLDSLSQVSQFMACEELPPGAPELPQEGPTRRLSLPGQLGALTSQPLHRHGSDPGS
For `COc1ccccc1-c1csc2ncnc(Sc3nnnn3C)c12`, the “hERG current change (%, negative = inhibition) at 1uM” value was found to be 14.3%.

For `CCOc1ccc(C(=O)N2CCc3cc(OC)c(OC)cc3C2)cc1OCC`, the “hERG current change (%, negative = inhibition) at 1uM” value turned out to be 11.2%. Next, `COc1ccccc1N(C)S(=O)(=O)c1ccc(C(=O)NC2CCCCCC2)cc1`: 8.37%; `CCSc1nnc(NC(=O)CSc2nncc(=O)n2N)s1`: 15.1%; `O=C(Nc1ccc(Br)cc1)c1ccc(F)c(S(=O)(=O)N2CCN(c3ccccn3)CC2)c1`: 10.3%. Take `Cc1cc(C)cc(NC(=O)Cn2nnc(C(=O)NCc3cccs3)c2N)c1`: the “hERG current change (%, negative = inhibition) at 1uM” value worked out at 3.25%. Next, `CCCCCCCC[n+]1cccc(C(=O)N(CC)CC)c1.[Br-]`: 12.6%; `O=C1NC(=O)N(Cc2ccccc2Cl)C(=O)/C1=C/N1CCOCC1`: 2.97%.

Consider `CCCCOC(=O)C1=C(N)OC2=C(C(=O)CCC2)[C@]12C(=O)N(C)c1ccccc12`, for which the “hERG current change (%, negative = inhibition) at 1uM” value is given as 3.97%.

For the compound `Cc1c(C)c2ccc(OCC(=O)N(C)C)c(C)c2oc1=O`, the “hERG current change (%, negative = inhibition) at 1uM” value is recorded as -3.22%. `CN1CCN(S(=O)(=O)c2cccc(C(=O)Nc3sc4c(c3C(N)=O)CCCC4)c2)CC1`: the “hERG current change (%, negative = inhibition) at 1uM” value is given as -4.51%. Next, `CCCCn1c(N)c(N(CCC(C)C)C(=O)CC2OC(=O)c3ccccc32)c(=O)[nH]c1=O` (centres unmarked): 6.12%. As for `CC(NC(=O)C(C)N1C(=O)C2C3CC(C(Br)C3Br)C2C1=O)c1ccccc1` (centres unmarked), the figure is 6.04%.

Take `N#Cc1ccccc1NC(=O)C1CC(=O)N(c2ccc3c4c(cccc24)CC3)C1` (centres unmarked): the “hERG current change (%, negative = inhibition) at 1uM” value is 8.51%. Next, `O=C(COc1ccc(S(=O)(=O)NCc2ccccc2)cc1)NCC1CCCO1` (centres unmarked): 9.55%; `C=CCSc1nnc(NC(=O)c2cn(CC)c3nc(C)ccc3c2=O)s1`: 2.48%; `CC1CCCC(C)N1C(=O)CSc1nnc(-c2ccco2)n1C` (centres unmarked): 15.3%. As for `COc1ccccc1CNC(=O)c1cc(-c2ccncc2)nc2c(Cl)cccc12`, the figure is 9.2%; as for `COc1cc2c(cc1OC)C(c1cccc([N+](=O)[O-])c1)N(C(=O)c1ccccc1C(=O)O)CC2` (centres unmarked), 15.6%; as for `Cn1c(CCN2CCOCC2)nc2cc(NS(=O)(=O)c3ccccc3)ccc21`, 6.09%. Next, `O=C(COc1cc2oc(=O)cc(-c3ccccc3)c2cc1Cl)NCCN1CCOCC1`: 9.31%; `CCC(C)(C)C1CCC2(CC1)NC(=O)N(CC(=O)Nc1cc(C(F)(F)F)ccc1N1CCOCC1)C2=O` (centres unmarked): 9.39%; `Cc1cc2cc(OCc3ccccc3)ccc2n1C`: 22.8%.

`NNC(=O)c1sc(-c2ccc(Cl)cc2)cc1N`: the “hERG current change (%, negative = inhibition) at 1uM” value is reported as 6.92%. As for `CCOC(=O)C1CCCN(C(=O)CSc2nccn2C)C1` (centres unmarked), the figure is 5.4%; as for `Cc1cc(Cl)ccc1N(CC(=O)N=Nc1c(O)[nH]c2ccccc12)S(C)(=O)=O`, -0.158%. As for `COc1ccc(OC)c(-n2cnc3cc(C(=O)O)ccc32)c1`, the figure is 7.48%. With `CC(C)(C)NC(=S)NC1CC1`, the “hERG current change (%, negative = inhibition) at 1uM” value is 12.9%. Next, `CC(=O)c1cccc(NC(=O)C2CCCN2S(=O)(=O)c2cccc3cccnc23)c1` (centres unmarked): 5.45%; `Cc1sc2c(c1C)C(=O)NC(c1cccc(O)c1)N2` (centres unmarked): 13.4%; `CCOCCn1c(=NC(=O)c2cc(Cl)sc2Cl)sc2cc(S(N)(=O)=O)ccc21`: 14.6%. As for `CCc1ccc(Oc2nnnn2-c2ccc(C(N)=O)cc2)cc1`, the figure is 13.7%; as for `O=C(O)c1ccccc1NCc1ccco1`, 14.1%; as for `O=C(Cc1ccc(Cl)cc1)NC(=S)Nc1ccccc1N1CCOCC1`, -4.31%. As for `CCOc1ccc(S(=O)(=O)N2CCN(c3ccccc3OC)CC2)c2cccnc12`, the figure is 3.71%. As for `Cc1cccc(C)c1N1CCN(S(=O)(=O)c2ccccc2)CC1`, the “hERG current change (%, negative = inhibition) at 1uM” value was found to be 8.64%.

`Cn1c(=O)c2c(nc(NCC3CCCO3)n2Cc2cccc(Br)c2)n(C)c1=O` (centres unmarked): the “hERG current change (%, negative = inhibition) at 1uM” value came to 13.4%. As for `Cc1ccc(NC(=O)COC(=O)CCc2c[nH]c(=O)[nH]2)cc1`, the figure is 7.58%; as for `CCOC(=O)C1CCCN(S(=O)(=O)CCNC(=O)c2ccc(F)cc2)C1` (centres unmarked), 4.49%. `O=C(N/N=C/c1cccnc1)C(O)c1ccccc1` (centres unmarked): the “hERG current change (%, negative = inhibition) at 1uM” value was 4.16%. As for `Cc1ccc(C)c(NC(=O)CN(C)C(=O)Cc2ccccc2)c1`, the figure is 2.74%; as for `O=C(COc1ccc(S(=O)(=O)N2CCCCC2)cc1)Nc1ccccc1F`, 15.9%. Next, `Cn1c(=O)c2c(nc(SCCN3CCCCC3)n2C)n(C)c1=O`: 9.53%; `O=C(O)COc1ccc(/C=N/NC(=O)/C(=C/C=C/c2ccccc2)NC(=O)c2ccccc2)cc1`: 15%.
